From PubChem BioAssay (NCATS)
The shares of active, inactive and inconclusive entries below differ from those in the screen. Where a call stands in place of a potency, no number is given. A potency beside an inconclusive call is a rough fit, not a confirmed value. The source made the active and inactive calls. Calls follow the shape of the dose curve; as a rule, active = well fitted cell-killing curve with a large enough effect; inconclusive = small, poorly fitted or top-dose-only effect, or effect the other way; inactive = flat fitted curve, though single readings scatter.
Potency is read from the fitted curve at half-maximal effect; tags tell the direction and shape of the fitted curve.

The compounds below were run on SKOV3 (assay: Primary qHTS to identify gynecologic anti-cancer compounds using libraries of approved drugs and bioactive compounds (AID 1345084; also: nearly all actives have a fitted effect of over 55% in size)). Conditions: Gynecologic cancer cell panel viability, ATPlite luminescence, 48 h; series mostly up to 57.5 µM.
Method in brief: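 ATP-based viability (ATPlite), 1,000 cells/well, 16 h pre-incubation, 48 h compound at 37 C, 5% CO2, 15 min RT before read.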
`CC(Cc1ccc(O)cc1)NCC(O)c1cc(O)cc(O)c1` (configuration not stated) was tested, and the Potency was “inactive”. With `O=c1[nH]c2ccccc2n1CCCN1CCC(n2c(=O)[nH]c3cc(Cl)ccc32)CC1` the Potency was “inactive”. For `CC(C)[C@H](NC(=O)c1nn(Cc2ccc(F)cc2)c2ccccc12)C(N)=O`, the Potency was “inactive”. In the case of `Cc1c(Cl)c(=O)oc2cc(OP(=O)(OCCCl)OCCCl)ccc12`, the Potency is reported as “inactive”. `CC[C@H]1C2CC3[C@@H]4N(C)c5ccccc5[C@]45C[C@@H]([C@H]2[C@H]5O)N3[C@@H]1O` was tested, and the Potency was “inactive”. For `CCN(CC)CCOC(=O)C(C)(c1ccccc1)c1ccccc1`, the Potency was “inactive”. In the case of `CCN(Cc1ccc(Cl)nc1)/C(=C/[N+](=O)[O-])NC`, the Potency is reported as inconclusive: 3.55 µM [cytotoxic, single point]. For `COc1ccc(C(c2ccc(OC)cc2)C(Cl)(Cl)Cl)cc1`, the Potency was inconclusive: 35.5 µM [cytotoxic, single point]. With `CN(Cc1cccc(-c2ccncc2)c1)C(=O)Oc1ccc(-c2ccc(C(N)=O)cc2)cc1` the Potency was “inactive”. In the case of `Clc1ccc([C@]23CNC[C@H]2C3)cc1Cl`, the Potency is reported as inconclusive: 11.2 µM [rising, partial curve, poor fit]. In the case of `CCC1CC2CN3CCc4c([nH]c5ccccc45)C(C(=O)OC)(C2)C13` (configuration not stated), the Potency is reported as inconclusive: 0.355 µM [cytotoxic, single point]. In the case of `CC(C)CC(N(C)C)C1(c2ccc(Cl)cc2)CCC1` (configuration not stated), the Potency is reported as inconclusive: 15.8 µM [cytotoxic, single point]. In the case of `Cc1cc(SCc2sc(-c3ccc(C(F)(F)F)c(F)c3)nc2C)ccc1OCC(=O)O`, the Potency is reported as inconclusive: 7.08 µM [rising, single point]. In the case of `C[C@@H]1[C@H](O)[C@@H](C)/C=C/C=C/CC/C=C/C=C/C=C/C=C/[C@H](O[C@H]2O[C@@H](C)[C@H](O)[C@@H](N)[C@H]2O)C[C@@H]2O[C@](O)(C[C@@H](O)[C@H](O)CC[C@@H](O)C[C@@H](O)C[C@@H](O)CC(=O)O[C@H]1C)C[C@H](O)[C@H]2C(=O)O`, the Potency is reported as inconclusive: 14.1 µM [rising, single point]. With `CCC1(c2ccccc2)C(=O)N(COC)C(=O)N(COC)C1=O` the Potency was “inactive”. `CN1C(=O)N(c2ccc(C#N)c(C(F)(F)F)c2)C(=O)[C@@]1(CO)c1ccccc1` was tested, and the Potency was “inactive”. For `COC(=O)[C@]12CCCC(C)(C)C1CCc1cc(C(C)C)c(O)c(O)c12` (some centres not stated), the Potency was “inactive”. With `CCOC(=O)c1ccc(-c2ccc(OC(=O)N(C)Cc3cccc(-c4ccncc4)c3)cc2)cc1` the Potency was “inactive”. `COc1c2c(cc3c1OCO3)CCN(C)C2` was tested, and the Potency was “inactive”. For `CCCC(C)C1(CC)C(=O)N=C(S)NC1=O` (configuration not stated), the Potency was inconclusive: 7.94 µM [rising, full curve, poor fit]. For `Cc1ccccc1CN1CCC(N2CCC(n3c(=O)[nH]c4ccccc43)CC2)CC1`, the Potency was inconclusive: 25.1 µM [cytotoxic, partial curve, poor fit]. For `CCC(COC(=O)c1cc(OC)c(OC)c(OC)c1)(c1ccccc1)N(C)C` (configuration not stated), the Potency was inconclusive: 39.8 µM [cytotoxic, single point]. `Nc1c(Cl)c(Cl)c(Cl)c(Cl)c1Cl` was tested, and the Potency was inconclusive: 14.1 µM [cytotoxic, single point]. With `CCCCOC(=O)c1ccccc1C(=O)OCc1ccccc1` the Potency was inconclusive: 7.94 µM [rising, single point]. In the case of `CCOP(=S)(OCC)O/N=C(\C#N)c1ccccc1`, the Potency is reported as “inactive”. `CCOc1ccc(Oc2ccc(OCc3cc(F)ccc3F)cc2)c(N)c1` was tested, and the Potency was “inactive”. In the case of `C=C1C(=O)OC2/C=C(\COO)CC/C=C(\COC(C)=O)CC(OC(=O)C(C)CC)C12` (configuration not stated), the Potency is reported as inconclusive: 17.8 µM [cytotoxic, single point]. With `CN(CC[C@H](N)CC(=O)N[C@H]1C=C[C@@H](n2ccc(N)nc2=O)O[C@@H]1C(=O)O)C(=N)N` the Potency was inconclusive: 8.91 µM [cytotoxic, single point]. For `O=C(O)CCCCCCNC1c2ccccc2CCc2ccccc21`, the Potency was inconclusive: 3.16 µM [rising, single point]. `NNc1ccccc1` was tested, and the Potency was inconclusive: 7.94 µM [rising, partial curve]. With `C/C1=C/[C@@H](C)C/C=C/[C@H]2[C@@H]3O[C@]3(C)[C@@H](C)[C@H]3[C@H](Cc4c[nH]c5ccccc45)NC(=O)[C@]32C(=O)/C=C\C(=O)[C@@H]1O` the Potency was inconclusive: 7.94 µM [cytotoxic, partial curve, poor fit]. In the case of `C1CCC(NC2CCCCC2)CC1`, the Potency is reported as “inactive”. `COc1ccc(OC)c(CC(C)N)c1` (configuration not stated) was tested, and the Potency was inconclusive: 7.08 µM [rising, partial curve, poor fit]. With `COc1ccc(C(=O)N2CCCC2=O)cc1` the Potency was “inactive”. In the case of `COC[C@@H](NC(C)=O)C(=O)NCc1ccccc1`, the Potency is reported as “inactive”. In the case of `C[C@]12CC[C@H]3[C@@H](CCC4=CC(=O)CC[C@@]43C)[C@@H]1CC[C@@H]2C(=O)O`, the Potency is reported as “inactive”. `O=C(O)c1ccc2[nH]cc(CCCCN3CC=C(c4ccccc4)CC3)c2c1` was tested, and the Potency was “inactive”.
